Results from PubChem BioAssay (NCI).
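Interpolation was linear, between the two tested concentrations surrounding the appropriate level; five concentrations were tested over 48 hours in 96-well plates. GI50: concentration for 50% inhibition of growth. The concentration for full growth arrest is given as TGI.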

The compounds below were run on NCI-H322M lung (assay: NCI tumour cell line growth inhibition, 48 h).

Row | SMILES | GI50 [µM] | TGI [µM]
1 | Nc1ccc(-c2nnc(SCc3ccc(O)c4ncccc34)o2)cc1 | 0.229 | > 48.9
2 | O=C(CCCCCCN1CC(=O)N2[C@@H](c3cccc(Br)c3)c3[nH]c4ccccc4c3C[C@H]2C1=O)NO | 3.79 | > 16.7
3 | COC(=O)c1ccc(NC2=C/C(=N/S(=O)(=O)c3ccc(C(=O)O)cc3)c3ccccc3C2=O)cc1 | 15.9 | 31
